Data taken from publication PMC11852966.
Numbering of substitutions follows the chain as printed. Names may count otherwise. No constants are given. Whether binding was seen depends on the method and setting. In cells and extracts the contact can be indirect. Some binding calls cover weakened binding; strength is not graded here. For some of these results: Sequences can lack the tags named with a protein.

Chains of the proteins cited; added tags and fusions are not shown. Lines headed by an entry give the natural chain unless they say otherwise; changes in a name come on top.
UniProt P0DOE5: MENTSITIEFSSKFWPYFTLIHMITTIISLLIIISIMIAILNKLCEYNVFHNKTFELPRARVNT

Tests used:
[1] = biological target: T1, eCFP-KRT9 (human (cDNA from HEK293T mRNA)) (UniProt P35527); assay: FRET or BRET; FRET by bleaching of the eYFP acceptor in Hela cells transfected for 24 hours and fixed in 4% paraformaldehyde; Olympus FV 3000 confocal; eCFP intensity in the bleached area
T1 sequence: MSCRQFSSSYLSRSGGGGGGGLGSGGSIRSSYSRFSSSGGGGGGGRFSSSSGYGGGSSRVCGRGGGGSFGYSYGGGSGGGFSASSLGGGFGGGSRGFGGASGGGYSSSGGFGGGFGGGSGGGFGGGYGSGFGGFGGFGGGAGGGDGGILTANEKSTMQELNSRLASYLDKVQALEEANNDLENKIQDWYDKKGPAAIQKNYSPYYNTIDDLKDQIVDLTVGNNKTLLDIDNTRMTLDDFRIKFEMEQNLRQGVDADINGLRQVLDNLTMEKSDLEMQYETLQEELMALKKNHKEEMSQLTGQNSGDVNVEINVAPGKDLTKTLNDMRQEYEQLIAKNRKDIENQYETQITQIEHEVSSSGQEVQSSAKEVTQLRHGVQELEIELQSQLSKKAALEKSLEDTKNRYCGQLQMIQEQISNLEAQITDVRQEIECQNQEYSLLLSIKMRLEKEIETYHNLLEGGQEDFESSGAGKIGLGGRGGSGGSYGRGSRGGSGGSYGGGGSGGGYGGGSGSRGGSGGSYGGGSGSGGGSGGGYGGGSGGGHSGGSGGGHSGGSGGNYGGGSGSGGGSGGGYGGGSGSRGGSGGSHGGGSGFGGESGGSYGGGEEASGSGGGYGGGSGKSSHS

[2] = biological target: T2, GFP-202–302 of KRT9 (human (cDNA from HEK293T mRNA)) (UniProt P35527); assay: co-IP; […] (20 mM Tris-HCl pH 7.5, 100 mM NaCl, 0.1 mM EDTA, 0.05% Tween-20); […]
T2 sequence: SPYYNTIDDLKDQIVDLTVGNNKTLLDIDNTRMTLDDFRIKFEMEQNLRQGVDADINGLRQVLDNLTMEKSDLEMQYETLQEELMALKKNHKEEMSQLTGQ

[3] = biological target: T3, GFP-202–466 of KRT9 (human (cDNA from HEK293T mRNA)) (UniProt P35527); assay: as above
T3 sequence: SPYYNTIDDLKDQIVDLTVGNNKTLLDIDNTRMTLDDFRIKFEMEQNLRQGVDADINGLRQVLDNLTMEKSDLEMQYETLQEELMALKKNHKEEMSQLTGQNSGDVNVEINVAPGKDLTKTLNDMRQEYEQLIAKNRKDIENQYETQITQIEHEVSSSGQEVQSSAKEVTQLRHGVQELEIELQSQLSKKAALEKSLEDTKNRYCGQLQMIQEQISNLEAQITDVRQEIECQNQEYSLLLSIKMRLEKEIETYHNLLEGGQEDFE

[4] = biological target: T4, KRT9-Myc (human (cDNA from HEK293T mRNA)) (UniProt P35527); assay: as above
T4 sequence: T1 sequence

[5] = biological target: T5, KRT9-Myc △151–191 (human (cDNA from HEK293T mRNA)) (UniProt P35527); assay: as above
T5 sequence: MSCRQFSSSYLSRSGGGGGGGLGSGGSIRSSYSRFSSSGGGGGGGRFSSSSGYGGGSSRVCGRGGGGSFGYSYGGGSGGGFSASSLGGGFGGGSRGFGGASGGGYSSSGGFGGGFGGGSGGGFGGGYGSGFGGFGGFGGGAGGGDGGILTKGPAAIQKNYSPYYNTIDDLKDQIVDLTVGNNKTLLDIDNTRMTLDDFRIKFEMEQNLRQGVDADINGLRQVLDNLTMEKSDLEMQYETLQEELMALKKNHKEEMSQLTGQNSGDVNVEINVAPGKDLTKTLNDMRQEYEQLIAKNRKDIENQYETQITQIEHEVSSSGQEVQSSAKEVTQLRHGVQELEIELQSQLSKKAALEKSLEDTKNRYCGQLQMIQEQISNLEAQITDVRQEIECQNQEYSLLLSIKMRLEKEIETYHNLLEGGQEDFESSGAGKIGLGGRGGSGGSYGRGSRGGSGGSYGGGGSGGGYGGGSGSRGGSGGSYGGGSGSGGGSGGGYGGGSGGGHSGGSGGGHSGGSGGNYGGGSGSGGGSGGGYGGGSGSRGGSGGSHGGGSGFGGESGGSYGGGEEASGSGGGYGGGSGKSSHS

[6] = biological target: T6, KRT9-Myc △202–302 (human (cDNA from HEK293T mRNA)) (UniProt P35527); assay: as above
T6 sequence: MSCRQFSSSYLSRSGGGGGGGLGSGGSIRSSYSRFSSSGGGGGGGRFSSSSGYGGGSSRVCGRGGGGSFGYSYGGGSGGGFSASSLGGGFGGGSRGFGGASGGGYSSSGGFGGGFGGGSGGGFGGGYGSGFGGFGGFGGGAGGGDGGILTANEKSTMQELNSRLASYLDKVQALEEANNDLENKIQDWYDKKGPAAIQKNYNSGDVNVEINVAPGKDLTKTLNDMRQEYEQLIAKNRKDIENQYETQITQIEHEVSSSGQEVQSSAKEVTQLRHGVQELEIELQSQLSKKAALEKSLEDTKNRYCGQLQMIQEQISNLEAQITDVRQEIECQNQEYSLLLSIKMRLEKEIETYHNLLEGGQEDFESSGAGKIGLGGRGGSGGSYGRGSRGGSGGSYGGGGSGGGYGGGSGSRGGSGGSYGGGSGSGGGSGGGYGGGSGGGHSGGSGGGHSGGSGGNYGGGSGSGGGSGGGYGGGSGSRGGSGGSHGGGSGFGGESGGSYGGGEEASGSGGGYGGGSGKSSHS

[7] = biological target: T7, KRT9-Myc △319–466 (human (cDNA from HEK293T mRNA)) (UniProt P35527); assay: as above
T7 sequence: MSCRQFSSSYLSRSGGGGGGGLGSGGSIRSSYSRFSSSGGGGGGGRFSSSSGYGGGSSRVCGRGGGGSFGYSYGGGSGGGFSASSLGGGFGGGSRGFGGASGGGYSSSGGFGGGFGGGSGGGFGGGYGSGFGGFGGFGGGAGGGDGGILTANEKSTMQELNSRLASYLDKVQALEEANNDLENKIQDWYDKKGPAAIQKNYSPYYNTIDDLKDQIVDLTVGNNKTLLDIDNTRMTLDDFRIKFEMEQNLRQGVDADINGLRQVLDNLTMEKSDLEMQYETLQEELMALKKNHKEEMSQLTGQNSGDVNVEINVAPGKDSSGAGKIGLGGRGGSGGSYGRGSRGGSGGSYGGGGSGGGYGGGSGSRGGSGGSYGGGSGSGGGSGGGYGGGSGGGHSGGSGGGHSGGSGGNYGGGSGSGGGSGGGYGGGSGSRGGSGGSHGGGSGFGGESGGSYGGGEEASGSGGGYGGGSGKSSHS

[8] = biological target: SH-HA (in A549 cells) (respiratory syncytial virus (strain of the cDNA not stated)) (UniProt P0DOE5); assay: co-IP

## eYFP-SH (from UniProt P0DOE5 2-64)
[1]
  binding: no binding

B1: GBP5-Flag (protein, UniProt Q96PP8 1-586)
chain: MALEIHMSDPMCLIENFNEQLKVNQEALEILSAITQPVVVVAIVGLYRTGKSYLMNKLAGKNKGFSVASTVQSHTKGIWIWCVPHPNWPNHTLVLLDTEGLGDVEKADNKNDIQIFALALLLSSTFVYNTVNKIDQGAIDLLHNVTELTDLLKARNSPDLDRVEDPADSASFFPDLVWTLRDFCLGLEIDGQLVTPDEYLENSLRPKQGSDQRVQNFNLPRLCIQKFFPKKKCFIFDLPAHQKKLAQLETLPDDELEPEFVQQVTEFCSYIFSHSMTKTLPGGIMVNGSRLKNLVLTYVNAISSGDLPCIENAVLALAQRENSAAVQKAIAHYDQQMGQKVQLPMETLQELLDLHRTSEREAIEVFMKNSFKDVDQSFQKELETLLDAKQNDICKRNLEASSDYCSALLKDIFGPLEEAVKQGIYSKPGGHNLFIQKTEELKAKYYREPRKGIQAEEVLQKYLKSKESVSHAILQTDQALTETEKKKKEAQVKAEAEKAEAQRLAAIQRQNEQMMQERERLHQEQVRQMEIAKQNWLAEQQKMQEQQMQEQAAQLSTTFQAQNRSLLSELQHAQRTVNNDDPCVLL
[2]
  binding: no binding
[3]
  binding: binds
[4]
  binding: binds
[5]
  binding: binds
[6]
  binding: binds weakly
[7]
  binding: binds

B2: endogenous GBP5 (protein, UniProt Q96PP8 1-586)
chain: B1 chain
[8]
  binding: binds

B3: eYFP-GBP5 (protein, UniProt Q96PP8 1-586)
chain: B1 chain
[1]
  binding: binds

B4: GBP5-Flag C583A (protein, UniProt Q96PP8 1-586)
chain: B1 chain with C583A
[4]
  binding: no binding
